# Experimental data reported in the supplement of paper PMC4967469.
# By IC50 is meant the dose at which the fit gives 50% viability; fits outside the tested doses are given as limits. AUC is the area under the same curve over the 256-fold range up to the top dose, as a fraction: 1 means no effect, lower means more sensitive. For some assays here: A top dose marked as inferred was calculated from the reported fits.
# Experiments:
# Assay in all cases: Viability of human cancer cell lines after 72 h of drug (GDSC screen)
# [1] = compound: CCN(CC)CCCCNc1ncc2cc(-c3cc(OC)cc(OC)c3)c(NC(=O)NC(C)(C)C)nc2n1 [PD-173074]; conditions: top dose 2 µM; top dose inferred
# Description: (§1)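 Human cancer cell lines in 384-well plates, medium with 10% serum, drug for 72 h over a 256-fold dose range (nine 2-fold or five 4-fold steps up to the top dose). Adherent lines were fixed and stained with the nucleic acid dye Syto60, suspension lines read with resazurin; signal relative to control wells, capped at 0 and 100%. One two-parameter sigmoid per drug and line, fitted in a mixed model over all curves with the slope shared within a line.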
# [2] = compound: CN(C)CCOc1ccc(-c2nc(-c3ccncc3)c(-c3ccc4c(c3)CC/C4=N\O)[nH]2)cc1 [SB590885]; conditions: top dose 5 µM; top dose inferred
# Description: as §1
# [3] = compound: CS(=O)(=O)CCNCc1ccc(-c2ccc3ncnc(Nc4ccc(OCc5cccc(F)c5)c(Cl)c4)c3c2)o1 [Lapatinib]; conditions: top dose 2 µM
# Description: as §1
# [4] = compound: Cc1cc(C(C)Nc2ccccc2)c2nc(N3CCOCC3)cc(=O)n2c1 [TGX221]; conditions: top dose 10 µM
# Description: as §1
Cell Line,AUC [1],IC50 [1] [nM],AUC [2],IC50 [2] [nM],AUC [3],IC50 [3] [nM],AUC [4],IC50 [4] [nM]
"CL-11 (large intestine, adherent)",0.974,> 2000,0.973,> 5000,0.987,> 2000,0.985,> 10000
"CMK (acute myeloid leukaemia, suspension)",0.97,> 2000,0.981,> 5000,0.991,> 2000,0.943,> 10000
"COLO-320-HSR (large intestine, suspension)",0.991,> 2000,0.991,> 5000,0.989,> 2000,0.989,> 10000
"COLO-668 (small cell lung carcinoma, adherent)",0.984,> 2000,0.988,> 5000,0.901,> 2000,0.982,> 10000
"COLO-684 (endometrium, suspension)",0.984,> 2000,0.985,> 5000,0.981,> 2000,0.978,> 10000
"COLO-800 (melanoma, adherent)",0.963,> 2000,0.964,> 5000,0.987,> 2000,0.957,> 10000
"COLO-824 (breast, adherent)",0.986,> 2000,0.986,> 5000,0.988,> 2000,0.987,> 10000
"COR-L88 (small cell lung carcinoma, adherent)",0.98,> 2000,0.984,> 5000,0.978,> 2000,0.878,> 10000
"COR-L95 (small cell lung carcinoma, adherent)",0.987,> 2000,0.987,> 5000,0.978,> 2000,0.979,> 10000
"COR-L279 (small cell lung carcinoma, suspension)",0.991,> 2000,0.991,> 5000,0.991,> 2000,0.952,> 10000
"CP66-MEL (melanoma, adherent)",0.986,> 2000,0.977,> 5000,0.986,> 2000,0.974,> 10000
"CPC-N (small cell lung carcinoma, suspension)",0.978,> 2000,0.985,> 5000,0.982,> 2000,0.851,8790
"CTB-1 (B-cell lymphoma, suspension)",0.914,> 2000,0.977,> 5000,0.979,> 2000,0.941,> 10000
"CTV-1 (acute myeloid leukaemia, suspension)",0.928,> 2000,0.958,> 5000,0.992,> 2000,0.986,> 10000
"CW-2 (large intestine, adherent)",0.988,> 2000,0.989,> 5000,0.974,> 2000,0.988,> 10000
"D-247MG (glioma, adherent)",0.97,> 2000,0.958,> 5000,0.929,> 2000,0.739,3950
"D-263MG (glioma, adherent)",0.705,539,0.983,> 5000,0.97,> 2000,0.879,> 10000
"D-283MED (medulloblastoma, adherent)",0.915,> 2000,0.971,> 5000,0.98,> 2000,0.972,> 10000
"D-392MG (glioma, adherent)",0.962,> 2000,0.974,> 5000,0.923,> 2000,0.83,9640
"D-502MG (glioma, adherent)",0.953,> 2000,0.907,> 5000,0.804,1760,0.911,> 10000

Cell Line,AUC [1],IC50 [1] [nM],AUC [2],IC50 [2] [nM],AUC [3],IC50 [3] [nM],AUC [4],IC50 [4] [nM]
"D-542MG (glioma, adherent)",0.984,> 2000,0.984,> 5000,0.947,> 2000,0.615,1390
"DB (B-cell lymphoma, suspension)",0.899,> 2000,0.9,> 5000,0.979,> 2000,0.938,> 10000
"DEL (lymphoid neoplasm, suspension)",0.994,> 2000,0.994,> 5000,0.992,> 2000,0.994,> 10000
"DG-75 (Burkitt lymphoma, suspension)",0.895,> 2000,0.979,> 5000,0.987,> 2000,0.986,> 10000
"DJM-1 (skin, adherent)",0.969,> 2000,0.952,> 5000,0.918,> 2000,0.973,> 10000
"DMS-79 (small cell lung carcinoma, suspension)",0.984,> 2000,0.986,> 5000,0.954,> 2000,0.965,> 10000
"DMS-114 (small cell lung carcinoma, adherent)",0.791,1050,0.985,> 5000,0.983,> 2000,0.967,> 10000
"DND-41 (T-cell leukaemia, suspension)",0.983,> 2000,0.947,> 5000,0.982,> 2000,0.983,> 10000
"DOHH-2 (B-cell lymphoma, suspension)",0.959,> 2000,0.959,> 5000,0.95,> 2000,0.966,> 10000
"DSH1 (bladder, adherent)",0.983,> 2000,0.948,> 5000,0.454,,0.989,> 10000
"Daudi (Burkitt lymphoma, suspension)",0.99,> 2000,0.99,> 5000,0.987,> 2000,0.96,> 10000
"EB2 (Burkitt lymphoma, suspension)",0.99,> 2000,0.99,> 5000,0.983,> 2000,0.961,> 10000
"EB-3 (Burkitt lymphoma, suspension)",0.984,> 2000,0.984,> 5000,0.976,> 2000,0.942,> 10000
"EC-GI-10 (oesophagus, adherent)",0.989,> 2000,0.988,> 5000,0.982,> 2000,0.989,> 10000
"EJM (lymphoid neoplasm, semi-adherent)",0.992,> 2000,0.992,> 5000,0.988,> 2000,0.992,> 10000
"EKVX (lung adenocarcinoma, adherent)",0.959,> 2000,0.969,> 5000,0.605,337,0.895,> 10000
"EM-2 (chronic myeloid leukaemia, suspension)",0.974,> 2000,0.982,> 5000,0.981,> 2000,0.973,> 10000
"ES1 (Ewing sarcoma, adherent)",0.986,> 2000,0.986,> 5000,0.985,> 2000,0.939,> 10000
"ES3 (Ewing sarcoma, adherent)",0.979,> 2000,0.985,> 5000,0.983,> 2000,0.967,> 10000
"ES4 (Ewing sarcoma, adherent)",0.942,> 2000,0.968,> 5000,0.878,> 2000,0.973,> 10000

Cell Line,AUC [1],IC50 [1] [nM],AUC [2],IC50 [2] [nM],AUC [3],IC50 [3] [nM],AUC [4],IC50 [4] [nM]
"ES5 (Ewing sarcoma, adherent)",0.877,> 2000,0.951,> 5000,0.983,> 2000,0.98,> 10000
"ES6 (Ewing sarcoma, adherent)",0.98,> 2000,0.982,> 5000,0.921,> 2000,0.863,> 10000
"ES7 (Ewing sarcoma, adherent)",0.984,> 2000,0.97,> 5000,0.941,> 2000,0.853,8140
"ES8 (Ewing sarcoma, adherent)",0.973,> 2000,0.952,> 5000,0.972,> 2000,0.976,> 10000
"ES-2 (ovary, adherent)",0.99,> 2000,0.892,4650,0.991,> 2000,0.991,> 10000
"ETK-1 (biliary tract, adherent)",0.98,> 2000,0.975,> 5000,0.905,> 2000,0.955,> 10000
"EW-1 (Ewing sarcoma, semi-adherent)",0.978,> 2000,0.989,> 5000,0.975,> 2000,0.91,> 10000
"EW-3 (Ewing sarcoma, adherent)",0.983,> 2000,0.979,> 5000,0.984,> 2000,0.982,> 10000
"EW-11 (Ewing sarcoma, adherent)",0.98,> 2000,0.981,> 5000,0.97,> 2000,0.978,> 10000
"EW-13 (Ewing sarcoma, suspension)",0.975,> 2000,0.984,> 5000,0.984,> 2000,0.986,> 10000
"EW-16 (Ewing sarcoma, adherent)",0.936,> 2000,0.931,> 5000,0.938,> 2000,0.98,> 10000
"EW-18 (Ewing sarcoma, suspension)",0.967,> 2000,0.977,> 5000,0.984,> 2000,0.977,> 10000
"EW-24 (Ewing sarcoma, semi-adherent)",0.992,> 2000,0.993,> 5000,0.909,> 2000,0.993,> 10000
"EoL-1-cell (haematopoietic neoplasm, suspension)",0.897,1980,0.924,> 5000,0.987,> 2000,0.944,> 10000
"Farage (B-cell lymphoma, suspension)",0.966,> 2000,0.98,> 5000,0.993,> 2000,0.97,> 10000
"GA-10 (Burkitt lymphoma, suspension)",0.971,> 2000,0.988,> 5000,0.99,> 2000,0.786,3610
"GB-1 (glioma, adherent)",0.979,> 2000,0.946,> 5000,0.981,> 2000,0.898,> 10000
"GCIY (stomach, adherent)",0.984,> 2000,0.984,> 5000,0.921,> 2000,0.873,> 10000
"GDM-1 (acute myeloid leukaemia, suspension)",0.987,> 2000,0.987,> 5000,0.984,> 2000,0.894,> 10000
"GI-1 (glioma, adherent)",0.975,> 2000,0.987,> 5000,0.93,> 2000,0.959,> 10000
